{"source": "PubChem BioAssay AID1508623", "about": "(National Center for Advancing Translational Sciences (NCATS), 2021)", "note": "In all, about 48,000 compounds went through this assay and about 450 (0.94%) were called active. The shares of active, inactive and inconclusive entries below differ from those in the screen. Calls come from the whole dose curve; as a rule, active = well fitted inhibition curve with a large enough effect; inconclusive = small, poorly fitted or top-dose-only effect; inactive = no such curve, though single readings can be large or run the other way. Where the call is inconclusive, the potency comes from a doubtful curve fit. Potency is the fitted concentration of half-maximal effect; tags give direction and shape of the fitted curve."}
{"assay": "Primary qHTS for Identification of Small Molecule Inhibitors of Huntingtin Promoter Activity; note: nearly all actives have a fitted effect of over 50% in size", "conditions": "HEK293 HTT promoter firefly luciferase reporter (activity 0% = vehicle and -100% = no light), 24 h; series mostly up to 57.5 µM", "outline": "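Quantitative HTS used concentration series of up to 57.5 uM final on HEK293 luciferase reporter cells, 24 h at 37 degrees C. Readout was Dual-Glo firefly luminescence.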"}
{"smiles": "COc1ccccc1NC(=O)C1=C(C)Nc2nc(SCc3ccccc3F)nn2C1c1ccncc1", "note": "(configuration not stated)", "Potency": "inactive"}
{"smiles": "Cc1cccc(NC(=O)C2CCN(S(=O)(=O)c3ccc4[nH]c5c(c4c3)CCCCC5)CC2)c1", "Potency": "inconclusive: 14.1 µM [inhibitor, partial curve]"}
{"smiles": "CN(c1ccccc1)S(=O)(=O)c1nnc(NC(=O)c2ccco2)s1", "Potency": "inactive"}
{"smiles": "CSc1nn(Cc2ccccc2C)c(NC(C)=O)c1S(=O)(=O)c1ccc(C)cc1", "Potency": "inconclusive: 28.2 µM [inhibitor, partial curve, poor fit]"}
{"smiles": "Cc1cc2cc(CCNS(=O)(=O)c3ccc(Br)cc3)c(=O)[nH]c2cc1C", "Potency": "inconclusive: 25.1 µM [inhibitor, single point]"}
{"smiles": "O=C(CCS(=O)(=O)c1nc(-c2cccs2)cc(C(F)(F)F)n1)Nc1ccc(Br)cc1", "Potency": "inconclusive: 31.6 µM [inhibitor, single point]"}
{"smiles": "COC(=O)c1ccc(CSc2nc3c([nH]c4ccccc43)c(=O)n2-c2cccc(Cl)c2)o1", "Potency": "inactive"}
{"smiles": "Cc1ccc(NC(=O)c2nc(S(C)(=O)=O)ncc2N(Cc2ccco2)Cc2cccs2)cc1C", "Potency": "inconclusive: 39.8 µM [inhibitor, single point]"}
{"smiles": "O=C(NC1CCN(Cc2ccccc2)CC1)c1ccc(Cn2c(=O)c3ccccc3n(Cc3ccc(F)cc3)c2=O)cc1", "Potency": "inactive"}
{"smiles": "Cc1ccccc1OCCSc1nc2ccc(NC(=O)c3cccs3)cc2s1", "Potency": "inconclusive: 39.8 µM [inhibitor, single point]"}
{"smiles": "Cc1ccc(-c2csc(=Nc3ccccc3)n2Cc2ccc3c(c2)OCO3)cc1", "Potency": "inactive"}
{"smiles": "COCCCn1c(-c2ccc(S(=O)(=O)N3CCOCC3)cc2)csc1=Nc1ccccc1", "Potency": "inconclusive: 25.1 µM [inhibitor, partial curve, poor fit]"}
{"smiles": "CC1(c2ccc(Cl)cc2)CC(C)(C)N(C(=O)c2cccc(F)c2)c2ccccc21", "note": "(configuration not stated)", "Potency": "inconclusive: 39.8 µM [inhibitor, single point]"}
{"smiles": "CN1CC[C@@H](c2c(O)cc(O)c3c(=O)cc(-c4ccccc4Cl)oc23)[C@@H](O)C1", "Potency": "inconclusive: 0.217 µM [inhibitor, full curve]"}
{"smiles": "Cc1ccc(C(=O)Oc2cc(-c3ccc4c(c3)OCO4)cc(=O)c3c(C)oc(C)c23)cc1", "Potency": "inconclusive: 39.8 µM [inhibitor, partial curve, poor fit]"}
{"smiles": "CC(=O)c1ccc(NS(=O)(=O)c2ccc(-n3cccn3)cc2)cc1", "Potency": "inconclusive: 39.8 µM [inhibitor, partial curve, poor fit]"}
{"smiles": "COc1ccc(C(=O)Oc2c(Sc3ccc(C)cc3)c(C)nn2C(C)(C)C)cc1OC", "Potency": "inconclusive: 31.6 µM [inhibitor, partial curve, poor fit]"}
{"smiles": "Cc1cccc(NC(=O)CCNS(=O)(=O)c2ccc3c(c2)CCN3C(=O)C2CC2)c1", "Potency": "inactive"}
{"smiles": "Cc1ccc(NC(=O)Cn2cc(C(=O)C3CCCCC3)c3ccccc32)cc1", "Potency": "inconclusive: 22.4 µM [inhibitor, single point]"}
{"smiles": "COC(=O)c1c(C)oc2ccc(N(C(=O)c3ccncc3)S(=O)(=O)c3cc(C)ccc3C)cc12", "Potency": "active: 28.2 µM"}
{"smiles": "Cc1ccc(NC(=O)C2CCC(CNS(=O)(=O)c3cccc4nsnc34)CC2)c(Cl)c1", "note": "(configuration not stated)", "Potency": "inconclusive: 28.2 µM [inhibitor, partial curve, poor fit]"}
{"smiles": "CCOc1ccc(-c2nc(CSCC(=O)NCc3ccc(C)cc3)c(C)o2)cc1", "Potency": "active: 7.08 µM"}
{"smiles": "COc1cccc(NC(=O)c2cc3c(-c4ccc(Cl)cc4)nn(C)c3s2)c1", "Potency": "inconclusive: 39.8 µM [inhibitor, single point]"}
{"smiles": "CC1=C(C(=O)O)N2C(=O)[C@@H](NC(=O)[C@H](N)C3=CCC=CC3)[C@H]2SC1", "Potency": "inactive"}
{"smiles": "O=C(CN(c1ccc(Cl)c(C(F)(F)F)c1)S(=O)(=O)c1ccccc1)Nc1cccnc1", "Potency": "inactive"}
{"smiles": "COc1cc(OC)cc(-c2cc3nc(C)c(CCC(=O)Nc4ccccc4OC)c(C)n3n2)c1", "Potency": "inconclusive: 20 µM [inhibitor, partial curve, poor fit]"}
{"smiles": "CCSc1oc(-c2cccs2)nc1S(=O)(=O)c1ccc(Br)cc1", "Potency": "inconclusive: 14.1 µM [inhibitor, partial curve, poor fit]"}
{"smiles": "OC[C@]1(O)OC[C@@H](O)[C@H](O)[C@@H]1O", "Potency": "inactive"}
{"smiles": "COc1ccccc1CNC(=O)c1cc2c(-c3ccc(Cl)cc3)nn(C)c2s1", "Potency": "inconclusive: 31.6 µM [inhibitor, single point]"}
{"smiles": "CCSc1ncc(Cl)c(C(=O)N(Cc2ccccc2)c2ccc(OC)cc2)n1", "Potency": "inconclusive: 31.6 µM [inhibitor, single point]"}
{"smiles": "O=C(c1ccccc1)N1CCCC(c2nc3c(nnn3Cc3ccc(F)cc3F)c(=O)[nH]2)C1", "note": "(configuration not stated)", "Potency": "inconclusive: 4.47 µM [inhibitor, partial curve, poor fit]"}
{"smiles": "Cc1nc(-c2ccc(Cl)cc2)oc1COC(C)(C)C(=O)O", "Potency": "inactive"}
{"smiles": "Cc1ccc(-n2cnc3cc(C(=O)NCc4ccc(F)cc4)ccc32)c(C)c1", "Potency": "inconclusive: 39.8 µM [inhibitor, single point]"}
{"smiles": "CC(Sc1nc2c(c(=O)[nH]1)CCCC2)C(=O)Nc1cc(C(F)(F)F)ccc1Cl", "note": "(configuration not stated)", "Potency": "inactive"}
{"smiles": "CCOC(=O)c1cccc(NS(=O)(=O)c2ccc3[nH]c4c(c3c2)CCCC4)c1", "Potency": "inactive"}
{"smiles": "CCCCc1c(C)nc2c(-c3ccc(Cl)cc3)c(C)[nH]n2c1=O", "Potency": "inactive"}
{"smiles": "CCOC(=O)C(CC)n1nc(C)c2c(C)n(-c3ccc(C)cc3)nc2c1=O", "note": "(configuration not stated)", "Potency": "inconclusive: 22.4 µM [inhibitor, partial curve]"}
{"smiles": "COc1ccc(-n2cc(-c3ccc4c(c3)OCO4)n(CC(=O)Nc3cccc(C)c3C)c2=O)c(OC)c1", "Potency": "inconclusive: 15.8 µM [inhibitor, single point]"}
{"smiles": "O=S(=O)(Nc1ccc(F)c(Cl)c1)c1ccc(Br)s1", "Potency": "inconclusive: 22.4 µM [inhibitor, single point]"}
{"smiles": "Cc1ccc(S(=O)(=O)c2nc(S(=O)(=O)c3ccc(C)cc3)c(NCCCOC(C)C)s2)cc1", "Potency": "inactive"}
{"smiles": "CCOC(=O)c1ccc(N2C(=O)c3n[nH]c(-c4cccs4)c3C2c2ccc(CC)cc2)cc1", "note": "(configuration not stated)", "Potency": "active: 20 µM"}
{"smiles": "Cc1cc(Nc2ncc3c(n2)N(C)C(=O)N(c2cc(NC(=O)c4cccc(C(F)(F)F)c4)ccc2C)C3)n(C)n1", "Potency": "inconclusive: 0.306 µM [inhibitor, full curve]"}
{"smiles": "Cc1ccccc1-n1nc(CO)c(C(=O)NCC(c2ccccc2)c2ccccc2)n1", "Potency": "inconclusive: 25.1 µM [inhibitor, partial curve, poor fit]"}
{"smiles": "COc1cccc2cc(-c3nc(Nc4cccc(C)c4C)sc3C)c(=O)oc12", "Potency": "inconclusive: 15.8 µM [inhibitor, partial curve, poor fit]"}
{"smiles": "Cn1c(=O)c2c(nc(NCCc3ccccc3)n2Cc2ccc(Cl)cc2)n(C)c1=O", "Potency": "inconclusive: 22.4 µM [inhibitor, partial curve]"}
{"smiles": "Cc1ccc(C)c(NC(=O)CSc2nnc(-c3cc4occc4n3C)n2-c2ccccc2C)c1", "Potency": "inconclusive: 28.2 µM [inhibitor, partial curve, poor fit]"}
{"smiles": "CC(=O)N1CCc2c(sc3c2c(=O)n(-c2cc(Cl)ccc2C)c(=O)n3Cc2ccccc2F)C1", "Potency": "inconclusive: 39.8 µM [inhibitor, single point]"}
{"smiles": "COC(=O)c1cc(Cl)ccc1NC(=O)CSc1ncc(S(=O)(=O)c2ccc(Br)cc2)c(=O)[nH]1", "Potency": "inactive"}
{"smiles": "O=C(CSc1nc(-c2ccccc2)nc2c1Cc1ccccc1O2)N1CCCCC1", "Potency": "inactive"}
{"smiles": "Cc1ccc(Cn2c(=O)n(CCCCC(=O)NCc3ccccc3Cl)c(=O)c3ccccc32)cc1", "Potency": "inconclusive: 25.1 µM [inhibitor, partial curve, poor fit]"}
{"smiles": "O=c1[nH]c2ccc(NCc3ccc(-c4ccccc4)o3)cc2[nH]1", "Potency": "inconclusive: 17.8 µM [inhibitor, partial curve]"}
{"smiles": "CCOc1ccccc1Nc1sc(C(=O)c2ccccc2)c(N)c1S(=O)(=O)c1ccc(C)cc1", "Potency": "inactive"}
{"smiles": "Cc1ccc(CCNC(=O)c2cc3c(-c4ccccc4F)nn(C)c3s2)cc1", "Potency": "inconclusive: 22.4 µM [inhibitor, single point]"}
{"smiles": "O=C(Nc1ccc(F)cc1)C1CCN(S(=O)(=O)c2ccc3c(c2)CCCN3C(=O)C2CCC2)CC1", "Potency": "inconclusive: 25.1 µM [inhibitor, partial curve, poor fit]"}
{"smiles": "CCOC(=O)c1cc(-c2ccc(OC)cc2)n(CCC(=O)NC2CCCCC2)c1C", "Potency": "inactive"}
{"smiles": "Cc1c(C(=O)OC2CCCCC2)[nH]c2c1C(=O)CC(c1ccc(C(C)(C)C)cc1)C2", "note": "(configuration not stated)", "Potency": "inactive"}
{"smiles": "COc1ccccc1C(=O)NC(=O)Nc1ccc(-n2nc(C(F)(F)F)cc2C(F)(F)F)cc1", "Potency": "inconclusive: 15.8 µM [inhibitor, partial curve, poor fit]"}
{"smiles": "CCOC(=O)c1sc(NC(=O)c2cc3nc(-c4ccc(Br)cc4)cc(C(F)(F)F)n3n2)c(C(=O)OCC)c1C", "Potency": "inconclusive: 39.8 µM [inhibitor, single point]"}
{"smiles": "CC(C)CC(=O)Nc1ccc(Cl)c(-c2nc3ccccc3[nH]2)c1", "Potency": "inactive"}
{"smiles": "N#Cc1ccc(NS(=O)(=O)c2ccc(-c3cnc(C4CC4)o3)cc2)cc1", "Potency": "inconclusive: 4.47 µM [inhibitor, partial curve, poor fit]"}
{"smiles": "CC(=O)Nc1ccc(S(=O)(=O)NCCc2csc3nc(-c4cccc(C)c4)nn23)cc1", "Potency": "inconclusive: 39.8 µM [inhibitor, single point]"}
{"smiles": "CCc1ccc(NC(=O)CSc2nc3ccsc3c(=O)n2C(C)CC)cc1", "note": "(configuration not stated)", "Potency": "inconclusive: 0.199 µM [inhibitor, single point]"}
